Results published in article PMC6919601, “Identification of Plasmodium dipeptidyl aminopeptidase allosteric inhibitors by high throughput screening” (PLoS ONE, 2019).
“And” between values parts separate entries of the source, which are not always exact repeats. Identical values can stand only once. Screen size: about 110,000 compounds; about 230 (0.21%) showed an effect of 50% or more. The list shows a part of the results.

Target: DPAP1 (Plasmodium falciparum, UniProt Q8IIJ9)
Assay: primary screen, percent inhibition; read by cleavage of a fluorogenic dipeptide substrate; higher = more effect of the substance
Parameters: species or system P. falciparum D10 trophozoite lysates; single well
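Also: 30 min substrate incubation versus DMSO and 10 µM JCP410 controls.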

Chain of DPAP1 (Q8IIJ9 whole entry, looked up): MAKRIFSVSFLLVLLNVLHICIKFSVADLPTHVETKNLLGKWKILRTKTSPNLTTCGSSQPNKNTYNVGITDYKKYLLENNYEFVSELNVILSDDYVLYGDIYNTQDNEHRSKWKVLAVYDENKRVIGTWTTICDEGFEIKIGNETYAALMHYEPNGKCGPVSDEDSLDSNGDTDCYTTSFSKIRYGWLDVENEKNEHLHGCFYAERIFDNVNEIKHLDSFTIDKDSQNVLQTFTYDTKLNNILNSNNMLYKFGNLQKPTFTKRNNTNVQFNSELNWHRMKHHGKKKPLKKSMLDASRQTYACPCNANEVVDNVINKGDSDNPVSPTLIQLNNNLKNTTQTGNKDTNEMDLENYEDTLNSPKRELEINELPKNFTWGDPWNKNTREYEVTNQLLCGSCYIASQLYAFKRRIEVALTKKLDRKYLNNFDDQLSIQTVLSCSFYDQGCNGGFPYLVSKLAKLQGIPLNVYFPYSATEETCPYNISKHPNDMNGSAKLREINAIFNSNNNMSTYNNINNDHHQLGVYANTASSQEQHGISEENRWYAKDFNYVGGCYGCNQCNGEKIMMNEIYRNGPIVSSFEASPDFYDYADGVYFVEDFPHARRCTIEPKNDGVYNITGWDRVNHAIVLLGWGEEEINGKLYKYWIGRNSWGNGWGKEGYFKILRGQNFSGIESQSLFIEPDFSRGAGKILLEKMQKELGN

| Structure (SMILES) | % Inhibition @ 10 uM |
| --- | --- |
| CCOC(=O)c1ccc(-c2ccc(C3NC(=O)c4c(sc5c4CCN(C)C5)N3)o2)cc1 (stereo not shown) | 6.08% |
| COc1ccc(-c2nc(CSc3nc4cccnc4[nH]3)c(C)o2)cc1 | -3.05% |
| Cc1cc2nc3n(c2cc1C)CCCN3 | -1.32% |
| CCOc1ccc(-c2cc(NC(=O)c3ccc(Br)o3)c(C(=O)OC)s2)cc1 | -3.96% |
| CC(NC(=O)CCn1nc(-c2ccccc2)c2ccccc2c1=O)c1ccccc1 (stereo not shown) | -4.84% |
| CCOc1cc2c(cc1OCC)C(c1cc(OC)c(O)c(OC)c1)NCC2 (stereo not shown) | -2.67% |
| Oc1cccc(-c2nc(O)c3c(n2)Oc2ccccc2C3)c1 | -2.84% |
| Cn1c(NC(=O)c2cc(-c3ccc4c(c3)OCO4)nc3ccccc23)cc(=O)n(C)c1=O | -6.58% |
| O=C(O)C1CCCCC1C(=O)NCC1CCCO1 (stereo not shown) | -2.66% |
| CCCC(=O)NCc1cn2ccsc2n1 | 7.12% |
| NC(=O)c1c(NC(=O)CCC2CCCCC2)sc2c1CCCC2 | 0.431% |
| COc1cccc(N(CC(=O)NC2CCCCC2)S(=O)(=O)c2ccccc2)c1 | -9.2% |
| Cc1ccc(CC(=O)NCc2nc(-c3ccc(Cl)cc3)no2)cc1 | -4.82% |
| CCC(C)NC(=O)Cn1nc(C)c2c(C)n(-c3ccccc3)nc2c1=O (stereo not shown) | -11.3% |
| Cn1c(=O)c2c(-c3ccc(C(C)(C)C)cc3)n(C3CCCC3)cc2n(C)c1=O | -1.35% |
| COc1ccc(CCNC(=O)c2cnn3c(C(F)F)cc(-c4ccccc4)nc23)cc1OC | -1.18% |
| COc1ccc(CCNC(=O)CN(C)S(=O)(=O)c2cccs2)cc1OC | -6.57% |
| N#CCNC(=O)[C@H](CS(=O)(=O)Cc1ccccc1)NC(=O)c1ccco1 | -6.78% |
| CC(C)(C)n1c(-c2ccc(S(=O)(=O)N3CCCC3)cc2)cs/c1=N\c1ccccc1 | -7.09% |
| CN(c1cccc(NC(=O)CN2C(=O)c3ccccc3S2(=O)=O)c1)S(C)(=O)=O | 5.69% |
| Cc1cc(C)cc(C(=O)c2ccccc2C(=O)O)c1 | -0.771% |
| CCCCN(CC)C(=O)c1cc2cc3cc(OC)ccc3nc2s1 | -1.55% |
| OCCNc1ncnc2c1c(-c1ccccc1)cn2-c1cccc(C(F)(F)F)c1 | 7.92% |
| Cc1cccc(OCC(=O)Nc2cccc3cccnc23)c1 | 5.15% |
| O=C(c1cccc(C(=O)N2CCN(c3ccccc3F)CC2)c1)N1CCN(c2ccccc2F)CC1 | -2.48% |

| Structure (SMILES) | % Inhibition @ 10 uM |
| --- | --- |
| CCSc1ncnc2c(C#N)c3n(c12)CCCCC3 | -2.42% |
| COc1cccc(-c2nc(CS(=O)(=O)CC(=O)NC3CCCc4ccccc43)c(C)o2)c1 (stereo not shown) | -7.53% |
| Cc1cc(C)n(C2CC(=O)N(c3cc(Cl)cc(Cl)c3)C2=O)n1 (stereo not shown) | 3.35% |
| CCc1ccccc1-n1nnc(-c2nsc(NC(=O)c3ccccc3)n2)c1C | 0.573% |
| CCOC(=O)c1sc(NC(=O)c2cc(-c3cc(OC)ccc3OC)on2)c(C(=O)OCC)c1C | -6.45% |
| Cc1cc(C)c2nc(O)c(O)nc2c1 | -0.711% |
| COc1ccccc1-c1nnc(SCC(=O)N2CCC(C)CC2)o1 | 0.738% |
| CC(CNC(=O)Cn1ncc2c3ccccc3n(Cc3ccccc3F)c2c1=O)c1ccccc1 (stereo not shown) | -7.1% |
| CN(C(=O)Cn1nc(C(F)(F)F)c2c1CCCC2)c1ccccc1 | 4.83% |
| CCc1nnc2c(NC(C)c3ccccc3)nc3ccccc3n12 (stereo not shown) | -0.165% |
| COc1ccc(C(=O)C[n+]2ccc3ccccc3c2)cc1OC | -4.61% |
| CCOc1ccccc1OC(CCN1CCN(C)CC1)c1ccccc1 (stereo not shown) | 3.91% |
| COc1ccc(-n2cnc3cc(NCc4ccco4)ccc32)cc1 | -5.34% |
| CCOc1ccc(NCC(=O)c2ccc(C)cc2)cc1 | 46.4% |
| CN(CC(=O)N1CCN(C2CCCCC2)CC1)S(=O)(=O)c1cccc2nsnc12 | 0.102% |
| CCOCCCNC(=O)c1ccc(Cn2c(=O)[nH]c3ccsc3c2=O)cc1 | -4.86% |
| COCCCNCc1c(C(=O)O)n(Cc2ccccc2C)c2cc(OC)ccc12 | 8.17% |
| O=C(Nc1cccc(Cl)c1)c1ccc(-c2ccccc2)cc1 | -1.98% |
| Cc1cc(NC(=O)C2CC(c3ccc(F)cc3)=NO2)n(-c2ccccc2)n1 (stereo not shown) | -3.94% |
| O=C(Cc1ccccc1)NCC1COc2ccccc2O1 (stereo not shown) | -2.29% |
| CC1(C(=O)Nc2nccs2)Cc2ccccc2C(=O)O1 (stereo not shown) | -6.09% |
| CC(=O)CC(=O)Nc1ccc(F)c(F)c1 | -2.03% |
| CCOC(=O)c1sc(NC(=O)c2ccc(C)cc2)c(C(=O)OCC)c1C | -2.42% |
| O=S(=O)(c1ccc(-n2cccn2)cc1)N1CCOCC1 | -5% |
| O=C(c1ccccc1F)N1CCN(C2CCCCC2)CC1 | -1.6% |

| Structure (SMILES) | % Inhibition @ 10 uM |
| --- | --- |
| CC(=O)c1ccc(N2COc3ccc4ccccc4c3C2)cc1 | -4.16% |
| CCOC(=O)c1c(S(=O)(=O)NCC(C)c2ccccc2)c(C)n(C)c1C (stereo not shown) | 2.35% |
| CCC(C)NC(=O)CSc1nc2c(sc3ccccc32)c(=O)n1Cc1cccnc1 (stereo not shown) | 7.11% |
| CCCOc1ccc(CNC(=O)C2CCCN(c3nn4c(=O)cc(C)nc4s3)C2)cc1 (stereo not shown) | -5.63% |
| O=C1C2C(c3ccc(F)cc3)OC3(C(=O)c4ccccc4C3=O)C2C(=O)N1Cc1ccccc1 (stereo not shown) | -3.04% |
| COc1cccc(CNc2nc3c(S(=O)(=O)c4ccccc4)nnn3c3ccc(Cl)cc23)c1 | -6.68% |
| COc1ccc(NC(=O)C2CC2c2ccc(Cl)cc2)c(C)c1 (stereo not shown) | 2.08% |
| CCCNC(=O)C(C)N(c1ccc(OC)cc1)S(C)(=O)=O (stereo not shown) | -5.35% |
| COc1ccc(-n2nnnc2C2CCN(S(=O)(=O)c3ccc4c(c3)OCCO4)CC2)cc1 | -3.49% |
| Cc1cccc(C)c1NC(=O)COc1ccc(Cl)cc1 | 4.63% |
| Cc1cc2c(c(=O)o1)C(c1ccc(C(F)(F)F)cc1)C(C#N)=C(N)O2 (stereo not shown) | 1.96% |
| COc1ccc(CC2CCOC2=O)cc1 (stereo not shown) | 3.25% |
| CCOC(=O)c1nnn(-c2nonc2N)c1CSc1ccccn1 | 14.6% |
| CC[C@H](NC(=O)[C@H](Cc1c(F)cccc1F)NC(=O)c1cc(-c2ccccc2)c(-c2ccccc2)s1)C(=O)c1nc2ccccc2o1 | 4.33% |
| CN1CCCC(COC(c2ccccc2)c2ccccc2)C1 (stereo not shown) | 3.62% |
| CCOc1ccc(C2=CC(c3cc(OC)c(OC)c(OC)c3)n3nnnc3N2)cc1 (stereo not shown) | 1.73% |
| C=CCN(Cc1ccc(OCC)c(OC)c1)C(=O)Nc1cccc(Cl)c1 | -4.49% |
| CCc1ccc(-c2nc(CSCC(=O)NCc3ccc4c(c3)OCO4)c(C)o2)cc1 | -1.05% |
| Cc1ccc(CNC(=O)CCn2c(=O)[nH]c3ccsc3c2=O)cc1 | -7.44% |
| Cc1ccc(-n2nc(C)c3c(C)cc(=O)oc32)cc1Cl | 3.65% |
| CC1(C)CC(=O)C2=C(C1)N(c1ccccc1)C(=O)C2(NC(=O)c1ccccc1)C(F)(F)F (stereo not shown) | -6.64% |
| Cc1nc(C)c(-c2csc(Nc3ccc(O)cc3)n2)s1 | -4.3% and -7.57% |
| CCC(Sc1nc(N)cc(O)n1)C(=O)Nc1cccc2ccccc12 (stereo not shown) | 2.36% |
| N#CCNC(=O)C1(NC(=O)c2ccc(N3CCOCC3)cc2)C[C@H]2CC[C@@H]1C2 (stereo partly shown) | -6.46% |
| CCO/C(O)=C1\C(C)=NC2=C(C(=O)CCC2)C1c1ccc(OC)c(Br)c1 (stereo not shown) | 2.45% |

| Structure (SMILES) | % Inhibition @ 10 uM |
| --- | --- |
| Cc1nn(CCCC(=O)N2CCN(C(=O)c3ccco3)CC2)c(=O)c2c1sc1ccccc12 | 1.91% |
| COC(=O)C1=C(N)Oc2cc(C)n(CCc3ccc(OC)c(OC)c3)c(=O)c2C1c1cccnc1 (stereo not shown) | -1.11% |
| O=C(O)c1ccc(CNC(=O)c2ccc3c(c2)C(=O)N(Cc2cccnc2)C3=O)cc1 | -5.51% |
| N#CC1=C2SCN(CCc3ccccc3)CN2C(=O)CC1c1cccs1 (stereo not shown) | 42.6% |
| CCOc1ccc(CC(=O)Nc2cccc(Cl)c2C)cc1OCC | -4.02% |
| COCCCNC(=O)c1ccc(Cn2c(SCc3ccc(F)cc3)nc3ccncc32)cc1 | -1.92% |
| COc1ccc(C(=O)Nc2nccs2)cc1S(=O)(=O)N1CCOCC1 | -0.995% |
| O=C1CC(N2CCN(c3ccccc3)CC2)C(=O)N1CCc1ccccc1 (stereo not shown) | 6.35% |
| CC(=O)Nc1ccccc1C(=O)Nc1ccccc1 | -2.44% |
| CCOc1ccc(N2C(=O)CC(N(C)Cc3ccccc3)C2=O)cc1 (stereo not shown) | 1.08% |
| Cc1cccc(OCC(=O)Nc2ccccc2C(F)(F)F)c1 | -12.2% |
| O=C(CNS(=O)(=O)c1ccc(C(=O)N2CCOCC2)cc1)N1CCOCC1 | 3.87% |
| Cc1nnc(N2CCC(C(N)=O)CC2)c2c1nnn2Cc1ccccc1Cl | 6.34% |
| CC12CCC(C(=O)O)(c3nc4ccc5ncccc5c4nc31)C2(C)C (stereo not shown) | -2.91% |
| CCCOC(=O)C1C2c3ccccc3C(c3ccccc32)C1C(=O)O (stereo not shown) | -0.415% |
| Cc1ccc(NC(=O)c2cccc(F)c2)c(NC(=O)c2cccc(F)c2)c1 | 0.331% |
| CC(C)C(NS(=O)(=O)c1cccs1)C(=O)NCc1ccc2c(c1)OCO2 (stereo not shown) | -1.96% |
| COc1ccc(N2C(=O)C3CCC(C)CC3C2=O)cc1 (stereo not shown) | 2.51% |
| Cc1ccnc(NS(=O)(=O)c2ccc(NC(=O)c3ccccc3Cl)cc2)n1 | -5.85% |
| CC1=C(C(=O)Nc2ccc(F)cc2F)C(c2ccccc2C)C2=C(O)CCCC2=N1 (stereo not shown) | -5.01% |
| COc1ccc(NC(=O)CN(c2ccc(F)cc2)S(=O)(=O)c2ccccc2)cc1OC | -4.01% |
| COc1ccc(C(=O)n2nc(C)cc2C)cc1Br | -4.93% |
